No constants are given. Whether binding was seen depends on the method and setting. In cells and extracts the contact can be indirect. Some results given as binding are weak or reduced against the parent protein; the word gives no strength. Where a sequence is shown, tags or fusion partners need not be part of it.
What was measured:
Test in all cases: co-IP; HEK293T cells overexpressing a Flag-tagged and a GFP-tagged protein; CHAPS lysis buffer (0.01 M Chaps, 50 mM Tris-HCl pH 7.8, 150 mM NaCl); agarose-conjugated anti-Flag M2 beads overnight at 4°C, 6 washes; Western blot
PPDPF-Flag (human) = molecular target: T1, PPDPF-Flag (human) (UniProt Q9H3Y8)
T1 sequence: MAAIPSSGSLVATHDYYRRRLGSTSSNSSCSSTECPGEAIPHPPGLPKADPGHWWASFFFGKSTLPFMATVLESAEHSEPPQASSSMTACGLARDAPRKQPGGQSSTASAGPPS

Protein sequences, listed by entry. Tags and fused reporters are not part of them.
UniProt Q96CX2: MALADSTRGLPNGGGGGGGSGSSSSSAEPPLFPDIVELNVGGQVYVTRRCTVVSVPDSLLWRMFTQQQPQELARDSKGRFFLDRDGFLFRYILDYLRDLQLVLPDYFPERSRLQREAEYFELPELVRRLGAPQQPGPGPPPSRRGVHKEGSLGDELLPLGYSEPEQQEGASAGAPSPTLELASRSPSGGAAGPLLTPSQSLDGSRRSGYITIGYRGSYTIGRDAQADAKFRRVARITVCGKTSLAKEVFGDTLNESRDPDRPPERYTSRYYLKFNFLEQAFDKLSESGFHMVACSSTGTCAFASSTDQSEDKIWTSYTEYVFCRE
UniProt P52945: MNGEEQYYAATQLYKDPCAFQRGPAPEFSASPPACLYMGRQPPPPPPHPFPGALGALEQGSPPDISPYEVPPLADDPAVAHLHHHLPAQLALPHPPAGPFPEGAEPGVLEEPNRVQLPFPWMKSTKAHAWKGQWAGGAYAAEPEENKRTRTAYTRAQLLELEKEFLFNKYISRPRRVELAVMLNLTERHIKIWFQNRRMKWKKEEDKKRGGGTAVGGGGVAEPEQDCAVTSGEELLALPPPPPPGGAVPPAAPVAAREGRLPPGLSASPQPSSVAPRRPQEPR
UniProt P43694: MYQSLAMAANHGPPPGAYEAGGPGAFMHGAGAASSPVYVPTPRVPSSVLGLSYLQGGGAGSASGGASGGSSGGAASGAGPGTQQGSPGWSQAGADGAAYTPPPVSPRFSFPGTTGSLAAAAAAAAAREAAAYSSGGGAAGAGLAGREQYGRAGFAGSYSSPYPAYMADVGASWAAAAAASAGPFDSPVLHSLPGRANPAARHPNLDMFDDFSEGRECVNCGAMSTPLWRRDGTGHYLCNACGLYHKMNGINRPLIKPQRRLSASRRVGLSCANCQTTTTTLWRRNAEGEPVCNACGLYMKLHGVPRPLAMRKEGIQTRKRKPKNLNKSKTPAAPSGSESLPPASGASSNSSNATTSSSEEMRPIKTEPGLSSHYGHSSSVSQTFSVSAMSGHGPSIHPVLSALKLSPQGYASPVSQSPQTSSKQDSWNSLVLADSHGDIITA

NKX6-1-Flag = molecular target: T2, NKX6-1-Flag (UniProt P78426)
T2 sequence: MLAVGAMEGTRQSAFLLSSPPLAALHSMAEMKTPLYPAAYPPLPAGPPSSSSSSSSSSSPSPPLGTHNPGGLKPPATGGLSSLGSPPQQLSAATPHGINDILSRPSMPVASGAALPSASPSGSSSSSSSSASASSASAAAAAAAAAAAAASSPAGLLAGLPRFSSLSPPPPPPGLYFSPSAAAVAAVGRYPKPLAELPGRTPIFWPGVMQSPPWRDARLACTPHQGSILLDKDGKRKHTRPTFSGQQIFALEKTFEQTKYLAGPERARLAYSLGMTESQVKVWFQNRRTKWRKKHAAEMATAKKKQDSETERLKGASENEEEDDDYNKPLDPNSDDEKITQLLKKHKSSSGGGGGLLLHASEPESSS

FOXA1-Flag = molecular target: T3, FOXA1-Flag (UniProt P55317)
T3 sequence: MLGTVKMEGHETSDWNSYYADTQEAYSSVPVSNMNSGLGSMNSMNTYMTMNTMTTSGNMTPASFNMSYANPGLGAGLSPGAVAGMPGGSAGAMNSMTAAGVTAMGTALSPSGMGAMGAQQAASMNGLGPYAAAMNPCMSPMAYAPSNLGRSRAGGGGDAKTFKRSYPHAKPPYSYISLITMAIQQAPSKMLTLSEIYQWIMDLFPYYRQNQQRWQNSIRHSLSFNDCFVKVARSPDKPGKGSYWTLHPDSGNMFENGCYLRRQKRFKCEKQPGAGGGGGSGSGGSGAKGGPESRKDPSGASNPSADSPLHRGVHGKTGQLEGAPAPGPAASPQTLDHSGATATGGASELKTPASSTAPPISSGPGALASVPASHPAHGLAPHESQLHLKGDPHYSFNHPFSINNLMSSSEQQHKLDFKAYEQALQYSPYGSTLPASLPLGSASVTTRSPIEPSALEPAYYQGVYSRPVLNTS

FOXA2-Flag = molecular target: T4, FOXA2-Flag (UniProt Q9Y261)
T4 sequence: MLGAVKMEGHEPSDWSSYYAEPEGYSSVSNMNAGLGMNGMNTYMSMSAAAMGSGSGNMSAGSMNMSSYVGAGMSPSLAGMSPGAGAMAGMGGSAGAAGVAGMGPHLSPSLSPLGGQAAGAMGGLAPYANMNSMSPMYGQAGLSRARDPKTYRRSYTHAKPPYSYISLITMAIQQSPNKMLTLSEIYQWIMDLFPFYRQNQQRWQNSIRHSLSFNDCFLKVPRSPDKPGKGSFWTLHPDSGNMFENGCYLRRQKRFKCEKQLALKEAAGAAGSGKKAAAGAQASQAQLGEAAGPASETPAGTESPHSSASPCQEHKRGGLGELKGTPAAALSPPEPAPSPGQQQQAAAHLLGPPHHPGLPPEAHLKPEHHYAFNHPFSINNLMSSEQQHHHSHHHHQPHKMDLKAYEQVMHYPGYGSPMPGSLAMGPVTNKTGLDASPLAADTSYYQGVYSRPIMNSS

KCTD12-Flag (human) = KCTD12-Flag (human) (UniProt Q96CX2)
PDX1-Flag = PDX1-Flag (UniProt P52945)
MAGED1-Flag (human) = molecular target: T5, MAGED1-Flag (human) (UniProt Q9Y5V3)
T5 sequence: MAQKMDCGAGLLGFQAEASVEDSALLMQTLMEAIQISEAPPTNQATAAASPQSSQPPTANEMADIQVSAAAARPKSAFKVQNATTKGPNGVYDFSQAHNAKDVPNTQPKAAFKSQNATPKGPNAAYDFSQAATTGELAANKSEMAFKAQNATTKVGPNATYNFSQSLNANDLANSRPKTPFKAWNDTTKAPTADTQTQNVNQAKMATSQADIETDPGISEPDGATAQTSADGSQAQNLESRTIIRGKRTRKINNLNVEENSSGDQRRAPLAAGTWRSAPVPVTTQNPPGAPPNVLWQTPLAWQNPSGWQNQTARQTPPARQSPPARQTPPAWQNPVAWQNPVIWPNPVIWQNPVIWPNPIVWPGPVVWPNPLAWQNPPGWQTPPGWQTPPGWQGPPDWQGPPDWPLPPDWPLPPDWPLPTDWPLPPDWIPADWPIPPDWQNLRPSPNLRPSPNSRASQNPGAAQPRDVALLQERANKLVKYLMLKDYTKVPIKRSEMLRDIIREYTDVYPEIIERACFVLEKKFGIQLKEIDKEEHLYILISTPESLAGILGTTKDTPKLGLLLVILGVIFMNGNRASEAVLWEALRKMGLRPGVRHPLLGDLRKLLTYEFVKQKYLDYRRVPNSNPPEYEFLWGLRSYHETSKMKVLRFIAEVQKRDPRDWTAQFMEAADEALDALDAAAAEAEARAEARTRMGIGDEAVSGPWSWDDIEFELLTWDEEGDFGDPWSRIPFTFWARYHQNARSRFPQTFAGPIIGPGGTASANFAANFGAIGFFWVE

GATA4-GFP (from UniProt P43694 1-442)
binding (PPDPF-Flag (human)): no binding

KCTD12-GFP (from UniProt Q96CX2 1-325)
binding (PPDPF-Flag (human)): binds

B1: PPDPF-GFP (protein, UniProt Q9H3Y8 1-114)
chain: MAAIPSSGSLVATHDYYRRRLGSTSSNSSCSSTECPGEAIPHPPGLPKADPGHWWASFFFGKSTLPFMATVLESAEHSEPPQASSSMTACGLARDAPRKQPGGQSSTASAGPPS
binding (NKX6-1-Flag): no binding | binding (FOXA1-Flag): no binding | binding (FOXA2-Flag): no binding | binding (KCTD12-Flag (human)): binds | binding (PDX1-Flag): no binding | binding (MAGED1-Flag (human)): binds

B2: MAGED1-GFP (protein, UniProt Q9Y5V3 1-778)
chain: MAQKMDCGAGLLGFQAEASVEDSALLMQTLMEAIQISEAPPTNQATAAASPQSSQPPTANEMADIQVSAAAARPKSAFKVQNATTKGPNGVYDFSQAHNAKDVPNTQPKAAFKSQNATPKGPNAAYDFSQAATTGELAANKSEMAFKAQNATTKVGPNATYNFSQSLNANDLANSRPKTPFKAWNDTTKAPTADTQTQNVNQAKMATSQADIETDPGISEPDGATAQTSADGSQAQNLESRTIIRGKRTRKINNLNVEENSSGDQRRAPLAAGTWRSAPVPVTTQNPPGAPPNVLWQTPLAWQNPSGWQNQTARQTPPARQSPPARQTPPAWQNPVAWQNPVIWPNPVIWQNPVIWPNPIVWPGPVVWPNPLAWQNPPGWQTPPGWQTPPGWQGPPDWQGPPDWPLPPDWPLPPDWPLPTDWPLPPDWIPADWPIPPDWQNLRPSPNLRPSPNSRASQNPGAAQPRDVALLQERANKLVKYLMLKDYTKVPIKRSEMLRDIIREYTDVYPEIIERACFVLEKKFGIQLKEIDKEEHLYILISTPESLAGILGTTKDTPKLGLLLVILGVIFMNGNRASEAVLWEALRKMGLRPGVRHPLLGDLRKLLTYEFVKQKYLDYRRVPNSNPPEYEFLWGLRSYHETSKMKVLRFIAEVQKRDPRDWTAQFMEAADEALDALDAAAAEAEARAEARTRMGIGDEAVSGPWSWDDIEFELLTWDEEGDFGDPWSRIPFTFWARYHQNARSRFPQTFAGPIIGPGGTASANFAANFGAIGFFWVE
binding (PPDPF-Flag (human)): binds
